Measurements published in PubChem BioAssay AID686978 (National Center for Advancing Translational Sciences (NCATS), 2013).
About 64,000 (15%) of roughly 420,000 compounds were called active. The inconclusive results got no clear call from the source; some entries with a clear call stand among them for comparison. Calls come from the whole dose curve; as a rule, active = well fitted inhibition curve with a large enough effect; inconclusive = small, poorly fitted or top-dose-only effect; inactive = flat fitted curve, though single readings scatter. Potencies of inconclusive entries are left out as doubtful fits. Peptide text beside a SMILES is read from it. * marks the point of attachment. Cbz = O=C(OCc1ccccc1)*; OtBu = CC(C)(C)O*; tBu = CC(C)(C)*
% is set by controls: 0 for no effect and ±100 for the full control effect; potency is the fitted concentration of half-maximal effect; tags give direction and shape of the fitted curve.

Test: qHTS for Inhibitors of human tyrosyl-DNA phosphodiesterase 1 (TDP1): qHTS in cells in absence of CPT; note: nearly all actives have a fitted effect of over 55% in size
Settings: DT40 Tdp1-/- hTDP1 cells, no CPT, ATP luminescence, 48 h; activity change, negative = growth inhibition: at 46.2 µM (top of the series)
Procedure, shortened: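 DT40 Tdp1-/-;hTDP1 cells, no CPT (DMSO vehicle only), 400 cells/well; compounds pin-transferred; ≥48 hr, 37 °C; CellTiter-Glo 30 min RT dark, luminescence read.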
With Cc1ccc(S(=O)(=O)CCC(=O)OCC(=O)NCC(=O)Nc2c(C)cc(C)cc2C)cc1 the Potency was “inactive”.
With Cc1sc2nc(CN(C(=O)NC3CCCCC3)C3CCCCC3)[nH]c(=O)c2c1C the Potency was active: 20.6 µM.
In the case of CNc1ccc(C(=O)OCC(=O)NCc2ccc3c(c2)OCO3)cc1[N+](=O)[O-], the Potency is reported as inconclusive [inhibitor, single point].
With CN1CCN(C(=O)CCCN2C(=O)/C(=C/c3ccc(Cl)cc3)SC2=S)CC1 the Potency was active: 11.6 µM.
With CCN1CCc2c(OCc3ccccc3)cccc2C1=O the Potency was inconclusive [inhibitor, single point].
In the case of O=C(CCSCCC(=O)NN=Cc1ccccc1)NN=Cc1ccccc1, the Potency is reported as “inactive”.
In the case of CCCC(=O)NC(=S)Nc1ccccc1C(=O)OC, the activity change, negative = growth inhibition is reported as inconclusive: -31.4% [inhibitor].
In the case of O=C(NCc1ccccn1)C12CC3CC(CC(C3)C1)C2, the Potency is reported as inconclusive [inhibitor, single point].
With CN(C)c1ccc(CNC(=O)C2(C)Cc3c(-c4cccc(C(F)(F)F)c4)ccnc3O2)cc1 (stereo unspecified) the Potency was inconclusive [inhibitor, single point].
With Cc1ccc(C)c(NC(=O)c2cc(S(=O)(=O)N3CCCCC3)c[nH]2)c1 the Potency was inconclusive [inhibitor, single point].
For Cn1c(=O)c2c(ncn2CCOc2ccc(Br)cc2)n(C)c1=O, the Potency was active: 16.4 µM.
With CC(NC(=O)OCc1ccccc1)C(=O)NCC(=O)NC(Cc1ccc(OC(C)(C)C)cc1)C(=O)OC(C)(C)C (stereo not drawn) (Cbz-Ala-Gly-Tyr(tBu)-OtBu; configuration not given here) the Potency was active: 11.6 µM.
For Cc1ccc(OC(=O)N(C)C[C@@H]2OCc3cn(nn3)CCCC(=O)N([C@@H](C)CO)C[C@H]2C)cc1, the Potency was inconclusive [inhibitor, full curve, poor fit].
For CCN1CCN(CC(=O)c2ccc(OC)cc2)CC1, the Potency was “inactive”.
With O=C(c1ccccc1)N(Cc1ccccc1)c1ccccn1 the Potency was “inactive”.
With CCOC(=O)N1CCC(NC(=O)c2ccc3c(c2)N(Cc2ccccc2C)C(=O)c2ccccc2S3=O)CC1 (stereo unspecified) the Potency was inconclusive [inhibitor, single point].
In the case of COc1ccc(/C=C2/C(=O)N(c3nc4ccccc4s3)N=C2CSc2ccc(Cl)cc2)cc1, the activity change, negative = growth inhibition is reported as inconclusive: -34.1% [inhibitor].
With CCOc1ccc(S(=O)(=O)Nc2ccccc2C(=O)N2CCOCC2)cc1 the Potency was “inactive”.
For CC(C)Oc1ccc(S(=O)(=O)N2CCCCC2)cc1NC(=O)CC1OC(=O)c2ccccc21 (stereo unspecified), the Potency was inconclusive [inhibitor, single point].
In the case of N#Cc1cccc(-c2cc(NCc3cccs3)ncn2)c1, the Potency is reported as inconclusive [inhibitor, partial curve].
With CCN(CC)CCCNC(CC(=O)Nc1cccc([N+](=O)[O-])c1)C(=O)O (stereo unspecified) the Potency was “inactive”.
In the case of CC(=O)c1ccc(OCC(O)CN2CCN(S(=O)(=O)c3cccc(Br)c3)CC2)cc1 (stereo unspecified), the Potency is reported as “inactive”.
In the case of O=C(c1ccc2c(c1)OCO2)N1CCC(Cc2ccccc2)CC1, the Potency is reported as inconclusive [inhibitor, partial curve, poor fit].
In the case of CC1CC(C)CN(C(=O)C2CCN(S(=O)(=O)c3ccc4c(c3)CC(C)N4C(=O)C3CC3)CC2)C1 (stereo unspecified), the Potency is reported as inconclusive [inhibitor, single point].
With COc1ccc(O)c(C(=O)c2cc(C#N)c(=O)n(CC3CCCO3)c2)c1 (stereo unspecified) the Potency was inconclusive [inhibitor, partial curve, poor fit].
For CC(C)c1ccc(C2CC(=O)Nc3cc4c(cc32)OCCO4)cc1 (stereo unspecified), the Potency was active: 29.1 µM.
In the case of COc1cccc(CNC(=O)[C@@H]2CCCN2C(=O)[C@H]2CCCCN2C(=O)c2ccc(Cl)cc2)c1, the Potency is reported as inconclusive [inhibitor, single point].
For Cc1ccc(-n2[nH]c(C)c(/C=N/c3ccccn3)c2=O)cc1, the Potency was inconclusive [inhibitor, partial curve].
For CN(Cc1nc(-c2ccc(Cl)cc2)no1)S(=O)(=O)c1ccccc1, the Potency was inconclusive [inhibitor, partial curve, poor fit].
For COc1ccc(C2CC(c3cccc(F)c3)=NN2c2ccc(S(N)(=O)=O)cc2)cc1 (stereo unspecified), the Potency was inconclusive [inhibitor, single point].
For Cc1cccc(C(C)C)c1-n1nnnc1-c1ccccc1, the Potency was inconclusive [inhibitor, single point].
With Cc1c(C(=O)N(Cc2ccccc2)C2CCS(=O)(=O)C2)oc2ccccc12 (stereo unspecified) the Potency was active: 20.6 µM.
In the case of Cc1ccc(S(=O)(=O)n2nc(-c3ccco3)nc2N)cc1, the Potency is reported as “inactive”.
With O=C(C1=C[C@H](c2ccccc2)C[C@H](OCCCCO)O1)N1CCN(Cc2ccccc2)CC1 the Potency was inconclusive [inhibitor, single point].
With Cc1cccc(-c2ccc3[nH]c4c(c3c2)CCN2C[C@@H]([C@H](C)O)[C@@H](N(C)C(=O)NC3CCCCC3)C[C@@H]42)c1 the Potency was inconclusive [inhibitor, partial curve, poor fit].
With Cc1ccccc1NC(NC(=O)c1cccnc1)C(Cl)(Cl)Cl (stereo unspecified) the Potency was inconclusive [inhibitor, single point].
For CC(=O)N1CCN(C(=O)c2cccc(NS(=O)(=O)c3ccc(Br)cc3)c2)CC1, the Potency was “inactive”.
In the case of O=c1cc(-c2ccccc2)n(S(=O)(=O)c2ccc3ccccc3c2)o1, the Potency is reported as “inactive”.
With CCOc1ccc(NC(=O)C(c2ccccn2)N(C(=O)CCl)c2ccc(OCC)cc2)cc1 (stereo unspecified) the Potency was inconclusive [inhibitor, single point].
For COc1cccc(NC(=O)c2ccccc2N(Cc2ccccc2)S(C)(=O)=O)c1, the Potency was inconclusive [inhibitor, single point].
In the case of CC(=O)c1cccc(NC(=O)c2c(F)c(F)c(F)c(F)c2F)c1, the Potency is reported as active: 29.1 µM.
In the case of CC(C#N)(NC(=O)CN1CCN(S(=O)(=O)c2cccc(F)c2)CC1)C1CC1 (stereo unspecified), the Potency is reported as “inactive”.
For COc1ccc(CCNC(=O)c2cnn(-c3nccc(-c4cccs4)n3)c2C)cc1OC, the Potency was inconclusive [inhibitor, single point].
For CC(=O)c1c(C)[nH]c(C(=O)Nc2ccc(N3CCCCCC3)cc2)c1C, the Potency was inconclusive [inhibitor, single point].
With Cc1cc(C)n(CC(O)COc2ccccc2C(=O)Nc2ccccc2)n1 (stereo unspecified) the Potency was inconclusive [inhibitor, partial curve].
For CC(=O)NCCNc1ncnc2ccc(-c3ccc4c(c3)OCO4)cc12, the Potency was inconclusive [inhibitor, single point].
For COc1cc(OC)c(NC(=O)c2cccc(F)c2)cc1Cl, the Potency was inconclusive [inhibitor, single point].
For CCOc1cccc(C(=O)Nc2ccc3c(c2)OCCO3)c1, the Potency was inconclusive [inhibitor, partial curve].
In the case of CC(C)c1ccc2oc(-c3cc(N)ccc3O)nc2c1, the Potency is reported as inconclusive [inhibitor, single point].
With CCN(CC)c1nn2c(=O)c(C(=O)NCCc3cccc(C)c3)cnc2s1 the Potency was inconclusive [inhibitor, partial curve, poor fit].
For CCOc1cc(N2CCOCC2)c(OCC)cc1NC(=O)CN1CCc2ccccc2C1, the Potency was active: 18.4 µM.
In the case of O=[N+]([O-])c1ccccc1CNCCO, the Potency is reported as “inactive”.
In the case of CN(Cc1c(F)cccc1Cl)C(=O)CNC(=O)c1cccs1, the Potency is reported as “inactive”.
In the case of Cc1ccc(NC(=O)CSc2ccccc2NC(=O)c2ccccc2)cc1Cl, the Potency is reported as active: 13 µM.
With CCCN1CCc2nc(N3CCN(C)CC3)ncc2C1 the Potency was “inactive”.
With O=C(C1CCN(S(=O)(=O)c2cccs2)CC1)N(c1ccccn1)C1CCCCC1 the Potency was inconclusive [inhibitor, partial curve].
In the case of N#CC(C#N)=C(Nc1ccccc1)c1ccccc1, the Potency is reported as inconclusive [inhibitor, single point].
In the case of COc1ccc(C(=O)NCC2(c3ccc(OC)c(OC)c3)CCCC2)cc1OC, the Potency is reported as inconclusive [inhibitor, single point].
For CC(C)(C)C1CCc2[nH]c3ccccc3c(=O)c2C1 (stereo unspecified), the Potency was active: 20.6 µM.
For CCC(CO)NCC(O)COCc1ccc2c(c1)OCO2 (stereo unspecified), the Potency was inconclusive [inhibitor, full curve, poor fit].
For COc1ccc(-c2noc(CSc3nc4ccccc4[nH]3)n2)cc1OC, the Potency was active: 18.4 µM.
For COc1cc(/C(C)=N/N2CCN(c3ccccc3OC)CC2)ccc1O, the Potency was “inactive”.
With COc1ccc(S(=O)(=O)N2CCOCC2)cc1NC(=O)Cc1c(Cl)cccc1Cl the Potency was inconclusive [inhibitor, partial curve].
With COc1ccc(CCNC(=O)Cn2c(=O)oc3cc(Cl)ccc32)cc1OC the Potency was “inactive”.
For CCc1nc2sc3c(O)cc(=O)[nH]c3c2cc1C, the Potency was active: 11.6 µM.
In the case of Cc1c(NC(=O)/C(C#N)=C/c2ccc(-c3cccc(Cl)c3)o2)c(=O)n(-c2ccccc2)n1C, the Potency is reported as active: 20.6 µM.
In the case of COc1ccc(N2C(=O)C3CC=C(Cl)CC3C2=O)cc1 (stereo unspecified), the Potency is reported as “inactive”.
With O=C(Nc1ccccc1F)C1(c2ccccc2)CC1(Cl)Cl (stereo unspecified) the Potency was inconclusive [inhibitor, single point].
In the case of c1cncc(-c2nnc3sc(-c4ccco4)nn23)c1, the Potency is reported as “inactive”.
With CS(=O)(=O)c1cccc(C(=O)OCC(=O)c2ccc3c(c2)OCCO3)c1 the activity change, negative = growth inhibition was inconclusive: -30% [inhibitor].
In the case of CCc1cccc(C)c1NS(=O)(=O)c1ccc2c(c1)CC(C)N2C(=O)C1CC1 (stereo unspecified), the Potency is reported as inconclusive [inhibitor, partial curve, poor fit].
